Laboratory results reported in PubChem BioAssay AID1347417 (National Center for Advancing Translational Sciences (NCATS), 2020).
Where “and” joins values, the source holds several entries; their conditions need not be identical. Identical values can stand only once. In all, about 120,000 compounds went through this assay and about 5,300 (4.4%) were called active. Inconclusive means that the source gave no clear call. Such entries were picked first, then a sample of the others. Calls come from the whole dose curve; as a rule, active = well fitted inhibition curve with a large enough effect; inconclusive = small, poorly fitted or top-dose-only effect; inactive = no such curve, though single readings can be large or run the other way. Where the call is inconclusive, the potency comes from a doubtful curve fit.

assay: qHTS Primary assay for Inhibitors of Plasmodium falciparum Dd2 growth in vitro; note: nearly all actives have a fitted effect of over 65% in size;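 for activity, negative = inhibition: plate controls were DMSO vehicle for no effect and reference drug for full effect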; conditions: P. falciparum Dd2 growth, SYBR Green, 72 h; activity, negative = inhibition: at 28.9 µM (top of the series) unless noted; series mostly up to 28.9 µM
Summary of the method: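 Readout: SYBR Green fluorescence, 485 nm excitation, 535 nm emission, after ~16 h lysis at 37C. Before that, Dd2-infected red cells (2.5% hematocrit) grew 72 h with compound, 29 uM top final concentration.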
Potency is the fitted concentration of half-maximal effect; tags give direction and shape of the fitted curve.

With `COc1ccccc1-c1ccc(CN2CCCC(c3nc4ccc(C)cc4c(=O)[nH]3)C2)cc1` (centres undefined) as the compound, how does the Potency read?
The Potency was active: 7.94 µM and inconclusive: 8.91 µM [inhibitor, single point].

With `CCOc1ccccc1C(=O)Nc1c(C(=O)Nc2ccc(F)cc2)oc2ccccc12` as the compound, how does the Potency read?
Its Potency is inconclusive: 17.8 µM [inhibitor, single point].

With `COc1ccc(-c2ccc3nnc(CNC(=O)c4ccc(C)cc4C)n3n2)cc1` as the compound, how does the “outcome” value read?
Its value is “inactive”.

For `CCOc1ccc(C2Nc3c(C)cccc3-c3cc(C)nn32)cc1` (centres undefined), which Potency is on record?
The Potency was inconclusive: 3.98 µM [inhibitor, partial curve, poor fit].

Which “activity, negative = inhibition” value does the source give for `CN1CC(=O)N(C2CCCNC2)Cc2c(NCCCN3CCCCC3)ncnc21` (centres undefined) here?
Its value is inactive: 7.96%.

Which Potency does the source give for `CC(C)CN1C(=O)COC[C@@H]1[C@H](O)c1ccc(NC(=O)C2CCCCC2)cc1` here?
The Potency was inconclusive: 11.2 µM [inhibitor, single point].

With `Cc1nnnn1-c1cccc(C(=O)N2CC[C@@](O)(C3CCOCC3)[C@H](C)C2)c1` as the compound, how does the “activity, negative = inhibition” value read?
Its value is inactive: 12.3%.

For `CCCN1CCCCC12Cc1ccccc1CN(C(C)=O)C2` (centres undefined), which Potency is on record?
The Potency was inconclusive: 20 µM [inhibitor, single point].

For `COc1cccc(CCC(=O)NC2CCN(C(=O)c3cc4c(=O)[nH]c(C)cn4n3)CC2)c1`, which Potency is on record?
The Potency was inconclusive: 0.398 µM [inhibitor, full curve, poor fit].

Which Potency does the source give for `Cc1ccc(-c2nc3ccccn3c2Nc2ccccc2C)s1` here?
The Potency was inconclusive: 20 µM [inhibitor, single point].

Which Potency does the source give for `N#Cc1ccc(CN2CCC3(CC2)CN[S+](=O)([O-])c2ccccc2N3)cc1` here?
The Potency was inconclusive: 11.2 µM [inhibitor, single point].

With `COc1ccc2[nH]c3c(c2c1)CCNC31CCN(C(=O)C2CCCC2)CC1` as the compound, how does the Potency read?
Its Potency is inconclusive: 7.08 µM [inhibitor, partial curve, poor fit].

Which Potency does the source give for `CN(Cc1ccccc1)C(=O)[C@@]12CCCC[C@H]1N(C)C(=O)CC2` here?
The Potency was inconclusive: 2.82 µM [inhibitor, partial curve, poor fit].

With `CCCCN1C(=O)[C@@H]2C[C@@H](O)CN2C2(CN(Cc3cccnc3)C2)C1=O` as the compound, how does the “activity, negative = inhibition” value read?
The value was inactive: 35% [at 44.1 µM].

Which Potency does the source give for `COc1cccc(N2C(=O)NC(=NC3CCCC3)C23CCCN(Cc2cccn2C)C3)c1` (centres undefined) here?
The Potency was inconclusive: 12.6 µM [inhibitor, partial curve, poor fit].

For `CCOC(=O)c1ccc(NC(=O)c2c(NCc3cccs3)sc3c2CCCC3)cc1`, which Potency is on record?
Its Potency is active: 10 µM.

With `CCc1ccc(S(=O)(=O)c2cn(C)c3cc(N4CCC(C)CC4)c(F)cc3c2=O)cc1` as the compound, how does the Potency read?
The Potency was inconclusive: 11.2 µM [inhibitor, single point].

For `O=C(NCc1ccc(F)cc1)N1CCCC(Cc2noc(-c3cccnc3)n2)C1` (centres undefined), which Potency is on record?
The Potency was inconclusive: 1.26 µM [inhibitor, partial curve, poor fit].

With `CCNC(=O)N1CCC(c2noc(-c3ccncc3)n2)C1` (centres undefined) as the compound, how does the activity, negative = inhibition read?
The activity, negative = inhibition was inactive: 14.9% [at 5.79 µM].

For `O=c1c(S(=O)(=O)c2ccccc2)cn(Cc2cccc(F)c2)c2cc(N3CCOCC3)c(F)cc12`, which Potency is on record?
Its Potency is inconclusive: 11.2 µM [inhibitor, single point].

For `COc1cccc(-c2ccc(CN3CCN(c4cc(Cl)ncn4)C(=O)C3)cc2)c1`, which “activity, negative = inhibition” value is on record?
Its value is inactive: -23%.

With `O=c1[nH]c2cc(-c3nc(-c4cccnn4)no3)ccc2n1C1CCC(O)CC1` (centres undefined) as the compound, how does the Potency read?
The Potency was inconclusive: 3.98 µM [inhibitor, partial curve, poor fit].

With `COc1ccc(CN2CCNc3cc(-c4ccccc4)ncc3C2)cn1` as the compound, how does the Potency read?
The Potency was inconclusive: 31.6 µM [inhibitor, single point].

With `Cc1c(CN(C)CC2(O)CCCN(Cc3ccc(C(C)C)cc3)C2=O)cnn1C` (centres undefined) as the compound, how does the Potency read?
The Potency was inconclusive: 10 µM [inhibitor, single point].

With `COc1ccc(C)cc1-n1nnc(-c2nc(-c3ccccc3Cl)no2)c1N` as the compound, how does the Potency read?
Its Potency is inconclusive: 8.91 µM [inhibitor, single point].

Which “activity, negative = inhibition” value does the source give for `Cc1c(CNC(=O)c2ccc3nc(-c4ccc(F)cc4)cn3c2)cnn1C` here?
Its value is inactive: -14.6%.

For `O=C(NCc1ccccc1)c1ccc(CSc2nc3cccnc3n2Cc2cccc(F)c2)cc1`, which Potency is on record?
Its Potency is inconclusive: 14.1 µM [inhibitor, single point].

Which “activity, negative = inhibition” value does the source give for `Cc1ccccc1OCC(=O)Nc1ccc(-c2nc3ncccc3o2)cc1` here?
The value was inactive: 1.03%.

For `Cc1cn2nc(-c3nc(C4CCCN(C(=O)c5cccs5)C4)no3)cc2c(=O)[nH]1` (centres undefined), which Potency is on record?
The Potency was inconclusive: 0.251 µM [inhibitor, full curve, poor fit].

With `O=C(c1cn2cc(-c3ccccc3Cl)n(CC3CC3)c(=O)c2n1)N1CCCCC1` as the compound, how does the Potency read?
Its Potency is inconclusive: 11.2 µM [inhibitor, partial curve, poor fit].

For `Cc1nc(C(=O)N2CCCC(CCc3cccc(C(F)(F)F)c3)C2)c(C)o1` (centres undefined), which “outcome” value is on record?
Its value is “inactive”.

Which Potency does the source give for `Cc1cc(C)cc(C(=O)NC2CCN(c3cnn(CC4CC4)c(=O)c3)CC2)c1` here?
Its Potency is inconclusive: 7.94 µM [inhibitor, partial curve, poor fit].

Which Potency does the source give for `CCOc1ccc(C(=O)NC2CCN(c3ccc(C)c(C)c3)C2=O)cc1` (centres undefined) here?
Its Potency is inconclusive: 3.16 µM [inhibitor, full curve, poor fit].

Which “activity, negative = inhibition” value does the source give for `CNC(=O)N1CCC(C2CCN(C(=O)c3ccc(F)cc3Cl)C2)CC1` (centres undefined) here?
Its value is inactive: 3.83%.

With `Cc1nc2cccnc2n1CC1CCCN(S(=O)(=O)Cc2ccc(Cl)cc2)C1` (centres undefined) as the compound, how does the Potency read?
The Potency was inconclusive: 0.316 µM [inhibitor, single point].

With `CC(C)c1ccc(C(=O)Nc2cc(-c3ccccc3F)nn2-c2ccccc2)cc1` as the compound, how does the Potency read?
The Potency was inconclusive: 12.6 µM [inhibitor, single point].

For `Cc1ccc(O)c(NC(=O)CCS(=O)(=O)c2nc(-c3cccs3)cc(C(F)(F)F)n2)c1`, which Potency is on record?
The Potency was inconclusive: 8.91 µM [inhibitor, partial curve, poor fit].

For `Cc1cccc(NC(=O)C2CCN(c3cn[nH]c(=O)c3)C2)c1` (centres undefined), which “activity, negative = inhibition” value is on record?
Its value is inactive: -0.349%.

Which Potency does the source give for `COc1ccccc1-c1nnc(C2CCN(C(=O)c3ccccc3C)CC2)o1` here?
The Potency was inconclusive: 10 µM [inhibitor, partial curve, poor fit].

Which “outcome” value does the source give for `Cn1nc(-c2ccc3ccccc3c2)cc1[C@H]1CN2CC[C@H]1C[C@@H]2CNC(=O)c1cccs1` here?
Its value is “inactive”.

With `COc1ccc(N(CC(=O)Nc2cc(OC)cc(OC)c2)S(=O)(=O)c2c(C)noc2C)cc1` as the compound, how does the Potency read?
The Potency was inconclusive: 11.2 µM [inhibitor, single point].

Which “activity, negative = inhibition” value does the source give for `O=C(c1ccc(-c2ccc(N3CCCCC3)nc2)cc1)N1CCCC1` here?
Its value is inactive: -2.51%.

With `Cc1cc2c(cc1S(=O)(=O)Nc1ccc(C(C)C)cc1)OCCN2C` as the compound, how does the Potency read?
The Potency was inconclusive: 14.1 µM [inhibitor, single point].

With `Cc1cccc(N2C(=O)CSC23CCN(C(=O)C2CCC2)CC3)c1` as the compound, how does the Potency read?
Its Potency is inconclusive: 0.0631 µM [inhibitor, full curve, poor fit].

Which “activity, negative = inhibition” value does the source give for `CC(C)n1c(C2CCN(C(=O)Cc3c[nH]c4ccccc34)CC2)nn(C)c1=O` here?
The value was inactive: -19.2%.

With `O=C(c1cccnc1)N1CCn2cc(C(=O)N3CCOCC3)nc2C1` as the compound, how does the “activity, negative = inhibition” value read?
Its value is inactive: 0.205%.

With `COc1cc(CN2CC[C@H](CNC(=O)C3CC3)[C@H](N(C)C)C2)cc(OC)c1` as the compound, how does the Potency read?
The Potency was inconclusive: 8.91 µM [inhibitor, single point].

For `COc1ccc(C)cc1NC(=O)c1cc(S(=O)(=O)N2CCC(C)CC2)ccc1F`, which Potency is on record?
The Potency was inconclusive: 12.6 µM [inhibitor, single point].

For `CCCCc1ccc(C(=O)Nc2ccc3nc(N4CCN(CC)CC4)cc(C)c3c2)cc1`, which Potency is on record?
The Potency was active: 4.47 µM.

With `Cc1ccccc1N1Cc2c(NCC3CC3)ncnc2N(C)CC1=O` as the compound, how does the “activity, negative = inhibition” value read?
Its value is inactive: -2.54%.

Which Potency does the source give for `Cc1cc(-c2nn(-c3ccccc3F)cc2CN2CCCC(C#N)C2)c(C)s1` (centres undefined) here?
The Potency was inconclusive: 12.6 µM [inhibitor, single point].

For `COc1cccc(OCc2nc3c(n2Cc2ccccc2)C(=O)N(CC2CCOCC2)CCN3)c1`, which Potency is on record?
Its Potency is active: 11.2 µM.

Which “activity, negative = inhibition” value does the source give for `COCCOC1CCOC2(CCN(S(=O)(=O)c3cn(C)cn3)CC2)C1` (centres undefined) here?
The value was inactive: 7.18%.

With `COc1cccc(-c2nc(CS(=O)(=O)CC(=O)Nc3cccc(C(C)=O)c3)c(C)o2)c1` as the compound, how does the Potency read?
Its Potency is inconclusive: 17.8 µM [inhibitor, single point].

Which Potency does the source give for `O=C1c2c(nc(CNCc3cccc(Cl)c3)n2Cc2ccccc2)NCCN1Cc1ccccc1` here?
Its Potency is inconclusive: 17.8 µM [inhibitor, single point].

With `O=C1CC(c2ccccc2)N(C(=O)C2CC2)CCCN(S(=O)(=O)Cc2ccccc2)CCN1` (centres undefined) as the compound, how does the Potency read?
Its Potency is inconclusive: 1 µM [inhibitor, partial curve, poor fit].

For `Cc1cnc(CC2CCCN(C(=O)C3CCC3)C2)n1Cc1ccccc1` (centres undefined), which Potency is on record?
Its Potency is inconclusive: 3.55 µM [inhibitor, single point].

With `CC(c1cc2ccccc2[nH]1)N(C)C(=O)C1CCN(CC(N)=O)CC1` (centres undefined) as the compound, how does the Potency read?
The Potency was inconclusive: 3.16 µM [inhibitor, partial curve, poor fit].

With `CCc1ccccc1NC(=O)N1CCC(N(CCC(C)C)C2CCOCC2)CC1` as the compound, how does the Potency read?
The Potency was inconclusive: 5.01 µM [inhibitor, partial curve].

With `CNC(=O)[C@@H]1CN(C(=O)CCc2ccccc2OC)C[C@H]1COC` as the compound, how does the “activity, negative = inhibition” value read?
The value was inactive: 3.63%.

With `COc1ccccc1N1CCN(C(=O)Cn2ncc3c2-c2cc(C)ccc2OC3)CC1` as the compound, how does the Potency read?
The Potency was inconclusive: 8.91 µM [inhibitor, single point].

With `Cc1ccc(-n2ncc(C(=O)Nc3ccc4c(c3)OCCO4)c2C2CCN(C(=O)OC(C)(C)C)CC2)cc1C` as the compound, how does the Potency read?
Its Potency is inconclusive: 11.2 µM [inhibitor, single point].

Which Potency does the source give for `Cc1ccc(-n2cc(CN3CCN4CCCC4C3)c(-c3cccc(C)c3)n2)cc1` (centres undefined) here?
Its Potency is active: 12.6 µM.

Which activity, negative = inhibition does the source give for `Cn1nc(C2CCN(C(=O)c3ccncc3)CC2)c2c1CCOC2` here?
The activity, negative = inhibition was inactive: 19.3% [at 5.79 µM].
